The other results are listed elsewhere or left out. At the low end of the ranking, values are background and their order means little.

In the experiment the target is SIX1-Q177R homeodomain (UniProt Q15475). The experiment is described as follows: universal protein binding microarray. The conditions noted are these: Universal all-10-mer PBM (8x60K, AMADID 030236), 300 nM GST-tagged protein, Alexa Fluor 488 anti-GST; buffer, salt, pH and temperature not stated; high values mean tight binding; most listed sequences are background and not binding sites; double strand, one strand shown.
Turning to GTCTCAAC, the binding signal was -0.0228 E-score.

Turning to GCCTCCCA, the binding signal was -0.122 E-score. With AGGCGGTG the figure was 0.28 E-score. With ACTTGTGA the figure was 0.0998 E-score. With ACCGTAGT the figure was -0.0171 E-score.

Regarding AGCACATC, the binding signal is -0.264 E-score. The result for AGACTGGG reads -0.132 E-score; that for ACCCCAAT, 0.266 E-score; that for TAGGTAAA, -0.0362 E-score. With ACGACGCC the figure was 0.101 E-score; with GCTTATTA, 0.00272 E-score; with AACGCTTA, -0.0439 E-score. With ACTGACGG the figure was -0.00298 E-score; with GACGGATA, 0.15 E-score. With CCAGTCAA, the binding signal was -0.0509 E-score. On to AATTGCCA, for which the binding signal is -0.112 E-score.

As for CTGATTGA, the binding signal was -0.153 E-score. The result for CTTTCACC reads -0.184 E-score.

Regarding CTACTGAA, the binding signal was -0.17 E-score. With CGCCTTAG the figure was 0.0237 E-score. The result for ATTGTCGA reads -0.0563 E-score; that for CTCGTTTC, -0.192 E-score. For the sequence CAAAAGGA, the binding signal is -0.0462 E-score. With CCTAAAAC the figure was -0.0695 E-score; with AAAGTACG, -0.127 E-score; with TGCTGCAA, 0.0295 E-score. With GATACAAC the figure was 0.0689 E-score; with ACGTTAGT, -0.0661 E-score. In the case of ACGTTAGG, the binding signal is -0.00652 E-score. The result for CTCGAGAG reads -0.00792 E-score; that for ACGATTAT, -0.138 E-score. The result for GGTAGGCA reads -0.0448 E-score. Take TAATACCA: the binding signal was 0.0686 E-score.

For the sequence TCGGACAA, the binding signal was -0.27 E-score. With CGTGACAG the figure was 0.0961 E-score. Turning to AGCAGTAC, the binding signal was -0.101 E-score.

Consider ATGAAAGG, for which the binding signal was -0.0917 E-score.

As to CGGGGAAA, the binding signal worked out at 0.0196 E-score. Regarding ACCGACGG, the binding signal is 0.0968 E-score. Consider CGGGAACG, for which the binding signal is -0.322 E-score.

For the sequence CACCCCGC, the binding signal turned out to be 0.337 E-score. The result for ACCGAATA reads 0.155 E-score; that for AGGGAGTA, 0.178 E-score; that for GGAAAGAA, -0.113 E-score. With AGCTGGCA the figure was -0.171 E-score; with TCGTTCCA, -0.303 E-score; with AACATCCC, 0.0126 E-score. With GGGCATGA the figure was -0.105 E-score; with AATAGAGA, -0.343 E-score; with CACATGGA, 0.128 E-score.

Turning to CAATAGTA, the binding signal is -0.0222 E-score. With ATCCCACG the figure was 0.0025 E-score; with ATTAGAAC, -0.126 E-score.

CCAGAGCA: the binding signal is 0.0859 E-score. In the case of AGTGAATA, the binding signal was -0.0782 E-score.

In the case of CTAGTGCA, the binding signal was 0.0626 E-score. ACTTGCCC: the binding signal was -0.0279 E-score. With GGCGCTCA the figure was -0.19 E-score.

Take CGGAACCC: the binding signal came to 0.234 E-score.

In the case of TTAATCAA, the binding signal is -0.0342 E-score. Turning to CCGGGTAG, the binding signal was determined as 0.169 E-score.

Consider CACGCGAC, for which the binding signal was 0.26 E-score. Consider GTTCGCAA, for which the binding signal is -0.108 E-score.

On to ATGTATAC, for which the binding signal was determined as 0.0564 E-score.

In the case of AACCGGGG, the binding signal came to 0.127 E-score. With GATGCCGA the figure was -0.154 E-score; with GACCTAGC, -0.16 E-score. The result for ATCACCAG reads -0.0799 E-score; that for CGCCCGAA, -0.0346 E-score; that for GTTGGAAA, -0.0616 E-score. With CCGGCCTC the figure was -0.148 E-score; with CCCGCGTC, 0.193 E-score; with CGATCTCC, -0.12 E-score. Take ACGGATGC: the binding signal is -0.136 E-score. The result for GGCGTCCC reads 0.0274 E-score; that for CCTCGGCC, -0.0831 E-score. The result for ATGGCTCC reads -0.166 E-score; that for ACCTGATC, 0.0832 E-score; that for AAAAGCAC, -0.0119 E-score. As to CGGCTAAA, the binding signal is -0.112 E-score. In the case of CATTAGGG, the binding signal is -0.192 E-score.

As to TCATGCGA, the binding signal is -0.0853 E-score. With CAGACAGA the figure was 0.0258 E-score.

For the sequence ACCTGACG, the binding signal came out at 0.00449 E-score. The result for GATTAGGC reads -0.0937 E-score; that for TACAAAGA, -0.195 E-score; that for AAGGGGAG, -0.0209 E-score.

Turning to AGATCGGC, the binding signal turned out to be 0.102 E-score. The result for TCAGGCCA reads -0.0625 E-score. As for CCAGTGAG, the binding signal was -0.0897 E-score. With GCCAGGAC the figure was -0.168 E-score; with ATTGATAG, -0.0988 E-score. The result for GACACAGC reads 0.17 E-score; that for GAGGTTCC, -0.0623 E-score; that for GATAGGCA, -0.215 E-score. The result for GCCACGGC reads -0.0357 E-score; that for ACGCCACC, 0.194 E-score. Turning to ATCCAGAT, the binding signal is -0.118 E-score.

As for AATCGCGA, the binding signal is -0.0571 E-score. With GCTCCAGC the figure was -0.0805 E-score. With CCGAAAAC, the binding signal was -0.0125 E-score. The result for TTAACCAA reads 0.0733 E-score; that for ACAAGCTC, -0.101 E-score; that for GAATGTGC, -0.179 E-score.

For the sequence CTAAGGAC, the binding signal was determined as 0.0508 E-score. The result for ATGTAGTG reads 0.141 E-score. The result for AAGCCCCT reads -0.0344 E-score; that for ATTAGCCA, -0.0843 E-score; that for CTAAGCTA, -0.209 E-score. The result for ATCTCCGA reads -0.0658 E-score. Consider AACAAATA, for which the binding signal is -0.00654 E-score. The result for AAACTTGC reads -0.126 E-score; that for CTTGCCGA, -0.00545 E-score.

For the sequence CGGGAATA, the binding signal amounted to 0.181 E-score. With ATGTCGCG the figure was -0.139 E-score. With ATGCTGAC the figure was 0.0738 E-score; with ACAAATCG, -0.0604 E-score.

Regarding AAATAAGT, the binding signal is -0.122 E-score.

In the case of GGTGTTTA, the binding signal came to 0.456 E-score. With AAGATGTC the figure was -0.104 E-score; with CTGGTTGA, -0.182 E-score. The result for ACGTATCT reads -0.0121 E-score. AATAATAC: the binding signal is 0.00888 E-score. The result for TATCTCAA reads 0.0703 E-score; that for ATCCAAGC, 0.0595 E-score; that for AAAAATTT, -0.256 E-score.

ACCCTGCC: the binding signal is 0.0923 E-score.

As for AACTCGAT, the binding signal was -0.02 E-score. With CGGGACCG the figure was -0.158 E-score.

Turning to TGCATTAA, the binding signal was found to be 0.113 E-score.

Turning to CAACAAGG, the binding signal stood at 0.0233 E-score.

For TAGTCGGA, the binding signal is -0.0444 E-score. The result for AGGTAAAG reads -0.0467 E-score; that for AACGAAGC, -0.201 E-score; that for GATTGCAC, 0.027 E-score. With ACGACTCC the figure was 0.309 E-score; with CGAAGAAC, -0.00916 E-score.

As to AGATGTTG, the binding signal was -0.258 E-score. With CTCGGTGC, the binding signal turned out to be 0.164 E-score. Regarding CCCAGTTC, the binding signal was -0.0676 E-score. Take CAAACACG: the binding signal is 0.32 E-score. With ACCATGGC the figure was -0.00258 E-score; with AGCCGGGA, -0.107 E-score. For the sequence GTAACGAA, the binding signal is -0.124 E-score. In the case of GTCACGAC, the binding signal worked out at 0.164 E-score. The result for CGAATCTC reads -0.0775 E-score; that for CAACACGC, 0.363 E-score. CGTACCAG: the binding signal is -0.0877 E-score. For ACACACCA, the binding signal is 0.415 E-score. Turning to ACATCGCA, the binding signal is 0.022 E-score. The result for AGGTCTGG reads -0.119 E-score; that for TTCCTAAA, -0.208 E-score; that for CCAATCGG, 0.0357 E-score.

In the case of ACCGTCAG, the binding signal worked out at 0.0571 E-score. The result for CCGTAGGA reads -0.0513 E-score; that for ACTGCGAT, 0.117 E-score. As for AATTCCTC, the binding signal is -0.246 E-score.

As for ACTCCCAG, the binding signal is 0.262 E-score. With GTATCAAC the figure was 0.256 E-score; with AGGGGCGA, 0.0418 E-score. With TTCATCAA the figure was -0.14 E-score. With AGTTCTAG the figure was -0.184 E-score; with ACTCGAAC, 0.0178 E-score.

Regarding GATATTCA, the binding signal was -0.289 E-score. With AGCCGTGC the figure was 0.0659 E-score. With AACCTTTA the figure was -0.148 E-score; with TAGAGCTA, -0.0216 E-score; with ATTTACAG, -0.156 E-score. With CCCTTCCC the figure was 0.181 E-score; with AGTCGCTC, -0.0228 E-score; with ACGCCATC, -0.0336 E-score. GAGCACTA: the binding signal was -0.151 E-score.
